# Measurements: PubChem BioAssay AID504832 (National Center for Advancing Translational Sciences (NCATS), 2011)
# About 18,000 (5.8%) of roughly 310,000 compounds were called active. Inconclusive results, whose numbers are uncertain, are shown with a selection of clear calls. Calls come from the whole dose curve; as a rule, active = well fitted inhibition curve with a large enough effect; inconclusive = small, poorly fitted or top-dose-only effect, or another doubt; inactive = no such curve, though single readings can be large or run the other way. No potency is given beside an inconclusive call; the fits are too rough.
# Assay: Primary qHTS for delayed death inhibitors of the malarial parasite plastid, 48 hour incubation
# Conditions: P. falciparum luciferase growth in erythrocytes; series mostly up to 28.7 µM
# In short: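 Firefly luciferase activity from engineered P. falciparum reports growth; inhibitors lower the luminescent signal. Cultures contained 2% hematocrit erythrocytes at 0.1% final parasitemia.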
# Potency is the fitted concentration of half-maximal effect; tags give direction and shape of the fitted curve.
row,Compound,Potency
1,CC(C)(C)C(=O)O/N=C(\N)c1ccc(Oc2cc(Cl)cc(Cl)c2)c([N+](=O)[O-])c1,"inconclusive [inhibitor, partial curve]"
2,CC(=O)Nc1ccc(C)cc1,inactive
3,CC(=O)c1c(C)[nH]c(C(=O)OCC(=O)Nc2cc(C(F)(F)F)ccc2N2CCOCC2)c1C,"inconclusive [inhibitor, single point]"
4,C=CCn1c(SCC)nc2sc3c(c2c1=O)CCc1ccccc1-3,"inconclusive [inhibitor, single point]"
5,COc1ccccc1CNC(=O)Cn1cc(Br)ccc1=O,inactive
6,COc1cc(-c2ccc(-[n+]3nc(-c4ccccc4)nn3-c3ccc([N+](=O)[O-])cc3)c(OC)c2)ccc1-[n+]1nc(-c2ccccc2)nn1-c1ccc([N+](=O)[O-])cc1,active: 5.36 µM
7,COc1ccc(C(=O)N/C(=C/c2cccnc2)C(=O)N2CCN(C)CC2)cc1OC,inactive
8,O=C1N=C(N2CCC(Cc3ccccc3)CC2)S/C1=C/c1cn[nH]c1-c1ccccc1,"inconclusive [inhibitor, partial curve]"
9,CN1CCN(c2nc(-c3cccs3)cc(C(F)(F)F)n2)CC1,"inconclusive [inhibitor, single point]"
10,COc1cccc(/C=N/Nc2nc3ccccc3[nH]2)c1O,"inconclusive [inhibitor, full curve]"
11,Cc1ccc(NC(=O)CN2C(=O)COc3ccc(S(=O)(=O)N4CCCC4)cc32)c(C)c1,"inconclusive [inhibitor, single point]"
12,Cc1cc(OCc2nc(-c3ccc(NC(=O)c4cccnc4)cc3)no2)ccc1Cl,"inconclusive [inhibitor, partial curve, poor fit]"
13,Cc1nn(Cc2ccccc2)c(Cl)c1/C=C/C(=O)OC(C)C(=O)N1CCCC1 (centres undefined),active: 1.65 µM
14,O=C(Oc1ccc(C(=S)N2CCOCC2)cc1Cl)c1ccccc1F,inactive
15,CCOc1ccc(S(=O)(=O)N2CCCC(C(=O)NCc3ccccn3)C2)cc1 (centres undefined),inactive
16,COc1ccc([C@]23Cc4ccccc4C(O2)c2c(c4ccc(OC)cc4oc2=O)O3)cc1,"inconclusive [inhibitor, single point]"
17,Cc1sc2c(c1C)C(=O)/C(=C\Nc1ccccn1)S(=O)(=O)N2C,"inconclusive [inhibitor, partial curve]"
18,CC1CCN(C(=O)CSc2ccc(-c3cccc([N+](=O)[O-])c3)nn2)CC1,inactive
19,CC(=O)NCc1ccc(C(=O)CCl)s1,active: 4.15 µM
